# Measured values taken from the supplement of paper PMC3334620.
# The full ranking holds about 33,000 sequences; the median of “E-score (-0.5 to 0.5)” is about -0.021, and the highest 2% start at about 0.32. Some of the results follow.
# Biological target: T1, Zap1 (UniProt P47043)
# T1 sequence: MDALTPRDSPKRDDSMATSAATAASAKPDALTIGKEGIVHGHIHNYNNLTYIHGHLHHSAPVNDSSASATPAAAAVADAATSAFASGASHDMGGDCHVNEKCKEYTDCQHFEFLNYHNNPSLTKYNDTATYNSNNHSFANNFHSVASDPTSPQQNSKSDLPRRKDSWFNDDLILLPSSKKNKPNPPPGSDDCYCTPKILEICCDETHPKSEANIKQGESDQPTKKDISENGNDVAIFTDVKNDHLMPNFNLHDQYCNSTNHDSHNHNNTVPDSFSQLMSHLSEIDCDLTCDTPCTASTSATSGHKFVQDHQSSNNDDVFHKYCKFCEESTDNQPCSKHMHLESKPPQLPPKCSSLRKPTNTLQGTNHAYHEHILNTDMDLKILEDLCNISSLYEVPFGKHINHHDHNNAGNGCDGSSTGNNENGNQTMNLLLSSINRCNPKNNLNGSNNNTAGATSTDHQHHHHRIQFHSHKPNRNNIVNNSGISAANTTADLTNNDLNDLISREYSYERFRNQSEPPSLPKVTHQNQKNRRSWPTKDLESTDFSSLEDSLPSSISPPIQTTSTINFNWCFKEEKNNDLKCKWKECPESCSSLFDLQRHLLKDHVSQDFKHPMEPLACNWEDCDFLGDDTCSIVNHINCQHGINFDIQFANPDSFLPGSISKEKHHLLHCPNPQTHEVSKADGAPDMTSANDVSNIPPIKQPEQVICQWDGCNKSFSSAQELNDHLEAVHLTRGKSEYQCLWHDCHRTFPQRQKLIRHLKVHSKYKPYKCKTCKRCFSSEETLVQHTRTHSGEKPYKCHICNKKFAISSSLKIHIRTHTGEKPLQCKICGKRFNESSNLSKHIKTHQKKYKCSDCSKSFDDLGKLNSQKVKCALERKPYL
# Test: PBM E-score (8-mer binding enrichment) (E-score (-0.5 to 0.5)); higher = stronger / more preferred TF binding; most listed sequences are background and not binding sites
# Conditions: protein concentration: 200 nM; construct: GST-full length
# Summary of the method: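 Detection of bound protein used fluorescent anti-GST, with scans normalised by masliner. The proteins were GST-tagged yeast transcription factors applied at about 100-200 nM to universal all-10-mer Agilent arrays made double-stranded by primer extension. Each ungapped eight-base word, pooled with its reverse complement, was scored with an E-score from the Universal PBM Analysis Suite.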
row,Sequence,PBM E-score
1,CTCGGGGA,-0.0438
2,AAGACATA,0.0348
3,AACAAGTC,-0.0703
4,CTCCAGAA,0.05
5,ACATCTAT,0.0742
6,AGCACCCC,-0.0687
7,GGACATAA,0.14
8,CGCGGGAA,0.0135
9,GTGAGTTA,0.00241
10,AGTGATGA,-0.0675
11,AGTATTAA,0.214
12,CTCGCAAG,0.198
13,ACCCAGGC,0.193
14,CCGCCGAA,-0.104
15,ATGGGGCA,-0.087
16,CAACTGAA,-0.0395
17,GGAGATCA,-0.112
18,AGGCGACT,-0.323
19,CCTAAGGA,-0.0157
20,CCCTATGC,0.176
21,AGAAAGCG,0.00865
22,ACTTCGGA,0.0252
23,CCGCCCCA,0.134
24,AGTGTCTA,0.0179
25,CGTAATCA,0.196

row,Sequence,PBM E-score
1,ACTCCCCA,-0.219
2,CTTACTCC,-0.125
3,GTGGCAAC,-0.131
4,ATGGGTAA,0.242
5,CTATAGTC,-0.125
6,CAACACCG,-0.0547
7,ATTCCTCG,0.012
8,AACCGTAT,0.0139
9,ACTTACAA,0.093
10,AAGAGTAA,0.0944
11,CAAACGGC,-0.257
12,ATTGAAGG,-0.321
13,CCTGTGAC,0.00603
14,CCGGCATC,-0.173
15,AAGCTGAC,0.0475
16,GAGATTGC,-0.209
17,AGCGTAGC,-0.142
18,GAGTATTA,0.0425
19,AATAGCGG,-0.0293
20,GCAGAGTA,-0.0931
21,CCTTCGTC,-0.158
22,CTCCGCCC,-0.172
23,ACCGACCC,0.00842
24,ACCGCAGT,0.253
25,GAGCCCGA,-0.112

row,Sequence,PBM E-score
1,AACCACTG,0.241
2,AAAAGGAC,0.231
3,AAATGCCG,-0.0215
4,TCGGAGCA,-0.196
5,CCGAACCA,0.0466
6,ACCTGAGA,0.0986
7,AGCCCGCA,-0.29
8,AATGATTC,0.0439
9,CCCTCTAC,-0.0957
10,GCGATTCC,-0.0435
11,ACATACCT,0.118
12,GTACTGAC,0.0986
13,CTTACAAG,0.00898
14,AAATTTGA,0.154
15,CCCCGTTA,-0.0929
16,AACGCTCT,-0.221
17,AGGAGGTC,-0.201
18,CAGCCCAG,-0.177
19,CGATCTTC,-0.113
20,AACTACGG,0.095
21,TATTCCCA,0.124
22,CAGAGTCA,-0.215
23,AGATGGTC,-0.102
24,GGCCCTAA,0.186
25,CGGATCCG,-0.268

row,Sequence,PBM E-score
1,TATAGGGA,-0.102
2,CACCCGCG,0.15
3,CGGGCAGC,-0.101
4,AGCCGTTA,0.0356
5,GCGGGTCA,0.367
6,GCCGCGGA,0.0769
7,CTAGTCAG,-0.158
8,GAGACTAA,-0.0596
9,AAGTCTCA,-0.2
10,AAAGATAG,-0.0702
11,CTAATGAA,0.116
12,AACGCATC,-0.0162
13,AGTTAAGC,-0.0921
14,ACTAACAC,0.0136
15,CGCGAAAA,0.127
16,CTTTTGAA,0.00349
17,CCTAATCG,0.113
18,CTTGGAGA,-0.0909
19,ATAATACG,0.147
20,AACGGAAA,0.177
21,CAGGCCCG,-0.211
22,ACATACTG,-0.107
23,CACTCACG,-0.0478
24,CGGTGCTC,0.123
25,CTTCTCCC,-0.213

row,Sequence,PBM E-score
1,AGTCTCGA,-0.109
2,GTCCAGCA,-0.182
3,CTGATACC,0.0845
4,GACTCATA,-0.196
5,AGAAATCG,-0.118
6,TCGCGTAA,0.108
7,CGGCGCTC,-0.0815
8,GGACCCAC,0.119
9,CACGAGCG,-0.16
10,GGCACAAA,-0.0555
11,GACAAAGA,0.0487
12,CAGTGTAA,0.183
13,CACTCCTC,-0.16
14,CTACGACC,-0.0672
15,AGCTCCGG,-0.0484
16,AGGAGCTC,-0.16
17,AACCATTA,0.365
18,CCGGTCTA,-0.257
19,CAGGTCTA,-0.0782
20,GAGGATGA,-0.01
21,AGACCATC,-0.138
22,ACGGAAGA,0.0265
23,ATATTATA,0.145
24,ATACACCG,-0.0908
25,CGGCCTGA,-0.1

row,Sequence,PBM E-score
1,AAGCGGCC,-0.128
2,ATTTAGAA,0.0699
3,CCGTACCG,-0.0718
4,CTGGTCAA,0.0546
5,CTAGACCA,0.0284
6,AGTACAAC,-0.0141
7,GGACACAC,-0.127
8,CACTAGGG,0.298
9,CGAGCGCG,-0.0778
10,ACTCAGGG,0.0842
11,CCTAGTTC,-0.00448
12,AAGTATAG,-0.0711
13,CAATGCGG,0.0126
14,TATTTTCA,0.182
15,ACTCGTCG,-0.156
16,AGCTACCT,0.0784
17,TCTGGGAA,-0.00205
18,AATCGACA,0.197
19,ATTGCGAG,-0.116
20,ATGTCATA,-0.0263
21,GCCACCAA,-0.0712
22,CACACCAA,0.132
23,GTTCTAGA,0.103
24,AGCTTTTG,-0.104
25,TCGTCGAA,-0.051

row,Sequence,PBM E-score
1,CTGCTCCA,-0.0925
2,CCTTGACG,0.115
3,AATTACGA,0.117
4,GGTCTCCA,0.0867
5,GAGTCTTA,-0.368
6,CCATGACC,0.416
7,AGAGCGTG,-0.169
8,AGCCGCGC,-0.0715
9,CACAAGGG,0.183
10,AGGTGGCC,0.0313
11,AGTGGGAC,-0.224
12,ATAAGTAG,-0.176
13,ACACAGGT,0.0457
14,CTTATCTA,0.115
15,ATGCGAAA,0.0458
16,AGATGCCA,-0.238
17,CCTTCCAG,0.113
18,GGCCCGCA,-0.143
19,AATGAAGA,0.0315
20,CGGTATCA,0.0813
21,CCAACGGG,0.144
22,GACGTCCC,-0.181
23,AGAACATG,-0.0176
24,AGGTCGGA,0.00598
25,GCCCTTCA,0.0388

row,Sequence,PBM E-score
1,TGCTTAAA,0.0825
2,CATGTATC,-0.101
3,ATTTACTC,0.1
4,TAAACCAA,0.199
5,AGCGTAAT,-0.0603
6,CGGCTGCC,-0.0566
7,ACGGGCCG,-0.216
8,AGGATGTG,0.0127
9,TCCAGTCA,-0.154
10,GATTTAGC,0.118
11,GCATGACA,-0.134
12,ATAGACAT,-0.0121
13,CTTCGGCC,-0.221
14,GGAGACCC,0.124
15,GATTGCCA,-0.122
16,AACCAAAT,0.223
17,CTGCGTTA,-0.121
18,ATTATGAG,-0.0122
19,ATCCACAG,0.0245
20,AGTCTTCA,-0.166
21,AGTAGGGG,0.00615
22,AACGAGGC,-0.0552
23,AAAGTTGT,0.208
24,GGCTGTGA,-0.0511
25,GAGCAACC,0.0661

row,Sequence,PBM E-score
1,ATTAGACG,0.0244
2,ATTGAATA,0.17
3,CGAACGGC,-0.0116
4,GGCAGTGA,-0.276
5,AAAAGTTA,0.17
6,GCGTACGC,-0.175
7,ACTTTCGA,0.0778
8,AATCGGCA,0.00192
9,CAAAAGAG,0.109
10,CTCACTGA,-0.0315
11,GGGCAGAC,-0.266
12,CACCGGCC,-0.0683
13,CGATGGAC,-0.00329
14,AATTCAAC,0.0874
15,CTCCGGAA,-0.251
16,ACTATCCG,0.0242
17,GACTACGC,-0.338
18,ATATTTGG,0.0679
19,CCTACAGG,0.0192
